The campaign covered roughly 270,000 compounds. About 5,800 (2.1%) were called active. The inconclusive results got no clear call from the source; some entries with a clear call stand among them for comparison. Calls follow the shape of the dose curve; as a rule, active = well fitted inhibition curve with a large enough effect; inconclusive = small, poorly fitted or top-dose-only effect; inactive = flat fitted curve, though single readings scatter. A potency beside an inconclusive call is a rough fit, not a confirmed value.
What follows are compounds tested against Microtubule-associated protein tau (Homo sapiens) (UniProt P10636) (assay: qHTS for Inhibitors of Tau Fibril Formation, Thioflavin T Binding). Details: recombinant tau K18 P301L, heparin-induced fibrillization, ThT fluorescence; series mostly up to 57.4 µM; activity, negative = inhibition: at the top concentration.
Chain of UniProt P10636 (P10636 whole entry, looked up): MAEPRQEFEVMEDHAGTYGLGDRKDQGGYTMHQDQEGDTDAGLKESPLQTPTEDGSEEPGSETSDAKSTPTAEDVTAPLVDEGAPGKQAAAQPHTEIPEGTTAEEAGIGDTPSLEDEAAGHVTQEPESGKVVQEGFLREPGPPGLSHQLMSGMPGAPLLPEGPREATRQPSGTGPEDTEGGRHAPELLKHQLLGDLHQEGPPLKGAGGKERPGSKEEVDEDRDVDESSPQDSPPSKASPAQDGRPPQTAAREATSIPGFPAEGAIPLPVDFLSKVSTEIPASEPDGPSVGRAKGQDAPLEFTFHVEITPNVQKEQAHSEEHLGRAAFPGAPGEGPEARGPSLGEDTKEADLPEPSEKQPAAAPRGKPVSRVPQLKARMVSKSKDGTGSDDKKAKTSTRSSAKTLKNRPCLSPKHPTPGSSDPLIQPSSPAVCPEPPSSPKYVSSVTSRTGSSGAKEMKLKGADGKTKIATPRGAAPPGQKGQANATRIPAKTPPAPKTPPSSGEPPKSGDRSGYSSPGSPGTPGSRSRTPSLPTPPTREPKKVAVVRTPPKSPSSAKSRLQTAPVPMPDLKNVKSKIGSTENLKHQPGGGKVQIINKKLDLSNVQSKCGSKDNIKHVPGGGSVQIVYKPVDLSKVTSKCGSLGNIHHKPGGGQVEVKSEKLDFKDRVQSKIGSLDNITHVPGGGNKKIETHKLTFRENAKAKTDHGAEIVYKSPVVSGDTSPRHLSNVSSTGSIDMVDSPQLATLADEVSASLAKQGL
How it was run: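 Fibril formation assay: tau K18 P301L at 15 uM with trace Alexa 594 label, heparin inducer 20 uM, pH 7 sodium acetate buffer, 37 C for 6 hr; endpoint ThT signal.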
% is scaled to controls: 0 for no effect and ±100 for the full control effect; potency is read from the fitted curve at half-maximal effect; tags tell the direction and shape of the fitted curve.
Also: nearly all actives have a fitted effect of over 55% in size.

SMILES	activity, negative = inhibition	Potency
O=C(CN1C(=O)CSc2ccccc21)Nc1ccc2c(c1)OCCO2	inactive: -18.3%	–
COC(=O)c1ccc2c(=O)n(CC3CCCO3)c(SCC(=O)NCCc3ccc(S(N)(=O)=O)cc3)nc2c1 (stereo not drawn)	inactive: -3.75%	–
CCc1nc2cccnc2n1-c1ccc(CC(=O)Nc2ccccc2Cl)cc1	inactive: -10.4%	–
CCN1CCN(C(c2cccc(F)c2)c2c(O)cc(C)n(CCOC)c2=O)CC1 (stereo not drawn)	–	inconclusive: 3.55 µM [inhibitor, full curve]
COc1ccc(CN(Cc2nc3ccccc3c(=O)[nH]2)C(=O)NC2CCCCC2)cc1	inactive: -17.6%	–
CCc1ccc(NC(=O)N2CCN(Cc3cc(=O)n4nc(-c5ccccc5OC)sc4n3)CC2)cc1	inactive: -10.2%	–
Cc1cc(C(=O)N/N=C/c2c(C)nn(-c3ccccc3)c2Cl)n[nH]1	–	inconclusive: 17.8 µM [inhibitor, partial curve]
O=[N+]([O-])c1cccc(-c2ccc(/C=N/NC(=S)Nc3cccc(F)c3)o2)c1	–	inconclusive: 6.31 µM [inhibitor, partial curve]
CN(C)CC(C)(C)CNS(=O)(=O)c1cccc(Cl)c1Cl	inactive: -4.55%	–
COc1cc(/C=C/C(=O)OCC(=O)Nc2ccc([N+](=O)[O-])cc2)ccc1O	–	inconclusive: 8.91 µM [inhibitor, partial curve]
O=C(O)C12CC3CC(C1)CC(n1ncc(NCc4ccco4)c(Cl)c1=O)(C3)C2	–	inconclusive: 35.5 µM [inhibitor, single point]
c1ccc2c(COn3nnc4ccccc43)cccc2c1	inactive: -15.2%	–
COC(=O)C(Sc1nc(C)cc(C)c1C#N)c1ccccc1 (stereo not drawn)	inactive: -5.37%	–
Cc1nn(-c2ccccc2)c(N2CCCC2)c1/C=N/NC(=O)c1ccccc1O	–	inconclusive: 22.4 µM [inhibitor, single point]
O=C(COc1cccc(NC(=O)c2ccco2)c1)c1ccc(F)cc1	–	inconclusive: 11.2 µM [inhibitor, partial curve, poor fit]
CC1=NNC(=O)/C1=C\c1cn(-c2ccccc2)nc1-c1ccccc1	inactive: -0.796%	–
Cc1c(C(=O)NCc2ccc(Cl)cc2)sc2nc3n(c(=O)c12)CCCC3	–	inconclusive: 31.6 µM [inhibitor, single point]
O=C(NNC(=O)C12CC3CC(CC(C3)C1)C2)c1cnccn1	inactive: -2.85%	–
CCS(=O)(=O)c1ccccc1C(=O)N(Cc1cccnc1)c1nc2cc(C)c(C)cc2s1	–	inconclusive: 25.1 µM [inhibitor, single point]
CCN(CC)CCCNC(=O)c1c(C)oc2ncnc(N3CCOCC3)c12	inactive: -3.73%	–
COc1ccc(CNC(=O)COC(=O)c2cc(-c3ccco3)nc3ccccc23)cc1	–	inconclusive: 28.2 µM [inhibitor, partial curve]
O=C(CSc1ncnc2ccccc12)N1CCCC1	–	inconclusive: 28.2 µM [inhibitor, partial curve]
COc1ccccc1Cc1nc2ccccc2nc1SCC(=O)NCCc1ccccc1	inactive: -4.87%	–
O=C(Cc1nc2ccccc2[nH]c1=O)c1ccc(Cl)cc1	–	inconclusive: 0.224 µM [inhibitor, full curve]
CCCCN(Cc1ccccc1)S(=O)(=O)c1ccc2c(c1)CC(C)N2C(=O)CC (stereo not drawn)	inactive: -14.2%	–

SMILES	activity, negative = inhibition	Potency
CC(=O)Nc1nc(C)c(C(C)(C)C)s1	inactive: -3.22%	–
CCn1c(NC(=O)Nc2cccc(C)c2C)cc2sccc21	–	inconclusive: 28.2 µM [inhibitor, partial curve]
COc1ccc(-c2nc(CSCC(=O)NCCc3ccc(C)cc3)c(C)o2)cc1OC	–	inconclusive: 31.6 µM [inhibitor, single point]
O=C(Cc1cccs1)NCCSc1c(-c2ccc(Cl)cc2)[nH]c2ccccc12	inactive: -14.9%	–
O=C(NN=C1CCC(c2ccccc2)CC1)c1cc2c(s1)CCCC2 (stereo not drawn)	–	inconclusive: 39.8 µM [inhibitor, single point]
CCCCC[n+]1cccc2c3ccccc3ccc21	inactive: 4.07%	–
O=S(=O)(NCC(c1ccco1)N1CCN(c2ccc(F)cc2)CC1)c1ccccc1 (stereo not drawn)	–	inconclusive: 20 µM [inhibitor, partial curve, poor fit]
CNc1ccccc1-c1nc2ccccc2n(C)c1=O	–	inconclusive: 28.2 µM [inhibitor, partial curve]
O=C(CSc1nnc(Cc2ccccc2)o1)NC1CC2CCC1C2 (stereo not drawn)	inactive: -8.84%	–
O=C(COC(=O)c1cc(Cl)ccc1[N+](=O)[O-])NCc1ccc(Cl)cc1Cl	–	inconclusive: 20 µM [inhibitor, partial curve]
CC[C@H](C)/C=C(C)/C=C/C1=CC2=CC(=O)[C@]3(C)OC(=O)[C@@H](C(C)=O)[C@@H]3C2=CO1	inactive: -10.5%	–
CCOC(=O)C(=CNc1ccc(-c2ccco2)c(Cl)c1)C(=O)OCC	–	inconclusive: 0.447 µM [inhibitor, full curve]
COC(=O)C(C(C)=O)C1=C/C(=N\S(=O)(=O)c2ccc(C)cc2)c2ccccc2C1=O (stereo not drawn)	–	active: 31.6 µM
CCOC(=O)c1sc(Nc2ccc(C)cc2C)nc1C	–	inconclusive: 25.1 µM [inhibitor, partial curve, poor fit]
Cc1ccc(-c2noc(CN(C3CCCCC3)S(=O)(=O)c3ccc(Cl)cc3)n2)cc1	–	inconclusive: 3.55 µM [inhibitor, single point]
C/C(=N\NC(=O)Cn1nc(C)cc1C)c1ccc([N+](=O)[O-])cc1	–	inconclusive: 3.16 µM [inhibitor, partial curve]
c1ccc(C(c2cccs2)c2c[nH]c3ccccc23)cc1 (stereo not drawn)	–	inconclusive: 2.82 µM [inhibitor, full curve]
O=C(CSc1nc2scc(-c3ccccc3)c2c(=O)[nH]1)N1CCCCC1	–	inconclusive: 31.6 µM [inhibitor, single point]
CCNc1ccc(C(=O)N/N=C/c2c(C)nn(-c3ccccc3)c2N2CCCC2)cc1[N+](=O)[O-]	–	inconclusive: 6.31 µM [inhibitor, partial curve]
CC(=O)c1csc(COc2cc(Cl)cc(Cl)c2)n1	–	inconclusive: 10 µM [inhibitor, partial curve, poor fit]
O=C(O)c1ccc(-c2ccccc2C(F)(F)F)o1	inactive: 9.95%	–
CCOc1ccccc1C(=O)N(Cc1ccc(N(C)C)cc1)CC1CCCO1 (stereo not drawn)	–	inconclusive: 8.91 µM [inhibitor, single point]
Cn1c(SCC(=O)c2ccc3c(c2)NC(=O)CO3)nc2ccccc21	–	inconclusive: 17.8 µM [inhibitor, partial curve]
CS(=O)(=O)Nc1ccc(C(=O)NCC2CCCO2)cc1 (stereo not drawn)	inactive: -2.62%	–
CC1(C)N=C(SCC(=O)Nc2ccc(Cl)cc2)C(c2ccccc2)=N1	–	inconclusive: 35.5 µM [inhibitor, partial curve, poor fit]

SMILES	activity, negative = inhibition	Potency
CC1=NN(C(=O)Cc2ccc([N+](=O)[O-])cc2)C(O)(c2ccccc2)C1 (stereo not drawn)	inactive: -14.7%	–
CCc1cccc2sc(N3CCN(C(=O)C4CC4)CC3)nc12	–	inconclusive: 12.6 µM [inhibitor, partial curve]
COc1ccc(/C=C/c2nc(N)nc(-c3ccccc3O)n2)cc1OC	–	inconclusive: 1.26 µM [inhibitor, full curve, poor fit]
Cc1cc(NC(c2nnc(-c3ccccc3)o2)c2ccccc2F)ccc1Br (stereo not drawn)	inactive: -16.4%	–
Cc1ccc(C)c(S(=O)(=O)C(C#N)c2nc3ccccc3nc2N2CCOCC2)c1 (stereo not drawn)	–	inconclusive: 20 µM [inhibitor, single point]
CN(C)c1ccc(NC(=O)CCCc2ccccc2)cc1	–	inconclusive: 15.8 µM [inhibitor, partial curve]
COc1ccc(C(=O)c2coc3ccc(O)cc23)cc1	–	inconclusive: 1.78 µM [inhibitor, full curve]
COc1cccc(NC(=O)c2c(-c3ccc(C)cc3)nnc3ccccc23)c1	inactive: 2.83%	–
CCOC(=O)Cc1ncccc1C(=O)Nc1ccc(OC)cc1	–	inconclusive: 7.94 µM [inhibitor, partial curve]
CCOP(=O)(OCC)C(NC(=O)c1cc([N+](=O)[O-])cc([N+](=O)[O-])c1)C(F)(F)F (stereo not drawn)	–	active: 25.1 µM
Cc1cc2c(cc1C)[n+](C)cn2CC(O)COCc1ccccc1 (stereo not drawn)	inactive: -1%	–
CCOC(=O)c1ccccc1NS(=O)(=O)c1ccc(OC)cc1	inactive: -8.17%	–
Cc1ccc(S(=O)(=O)N2CCc3nc(-c4ccccc4)c4c(c3C2)CO[C@@H](C)C4)cc1	inactive: 4.01% [at 11.5 µM]	–
COc1cc2c(C)c3c4c(cc(OC)c(OC)c4c2cc1OC)CCN3C	–	inconclusive: 15.8 µM [inhibitor, partial curve]
O=[N+]([O-])c1cccnc1N1CCC(c2cc(-c3ccc(Cl)cc3Cl)n[nH]2)CC1	–	active: 12.6 µM
COc1cc(/C=N/NC2=NC(C)(C)Cc3ccccc32)cc(OC)c1OC	–	inconclusive: 31.6 µM [inhibitor, partial curve]
COc1ccc(C(=O)/C(C#N)=N/Nc2cccc([N+](=O)[O-])c2)cc1	–	active: 7.94 µM
O/N=C1\CCC\C1=C/c1ccco1	–	inconclusive: 12.6 µM [inhibitor, partial curve, poor fit]
CN(C)CCN(C(=O)c1ccccc1Cl)c1nc2c(Cl)cccc2s1	–	inconclusive: 20 µM [inhibitor, single point]
COCCOC(=O)c1c(NC(=O)CN2c3ccccc3CC2C)sc(C(N)=O)c1C (stereo not drawn)	inactive: -9.26%	–
COc1ccnc(Nc2cccc(C)c2)c1C#N	inactive: -2.89%	–
O=C(Nc1ccccc1)c1ccc2nsnc2c1	–	inconclusive: 22.4 µM [inhibitor, single point]
Oc1ccc2ccccc2c1CN1CCN(c2ccccc2)CC1	–	inconclusive: 14.1 µM [inhibitor, partial curve]
